Results from PubChem BioAssay AID485341 (National Center for Advancing Translational Sciences (NCATS), 2010).
Among all 330,000 compounds or so, about 1,700 (0.52%) were called active. This list was built around the results that the source calls inconclusive (neither active nor inactive); the mix of calls is not that of the screen. Calls follow the shape of the dose curve; as a rule, active = well fitted inhibition curve with a large enough effect; inconclusive = small, poorly fitted or top-dose-only effect; inactive = no such curve, though single readings can be large or run the other way. Potencies of inconclusive entries are doubtful fits and often do not repeat.

target: Beta-lactamase (Escherichia coli (strain K12)) (UniProt P00811); test: qHTS Inhibitors of AmpC Beta-Lactamase (assay without detergent); conditions: AmpC nitrocefin hydrolysis, absorbance 480 nm, 0.0001% Triton; series mostly up to 57.1 µM; also: nearly all actives have a fitted effect of over 20% in size
UniProt P00811, sequence (P00811 whole entry, looked up): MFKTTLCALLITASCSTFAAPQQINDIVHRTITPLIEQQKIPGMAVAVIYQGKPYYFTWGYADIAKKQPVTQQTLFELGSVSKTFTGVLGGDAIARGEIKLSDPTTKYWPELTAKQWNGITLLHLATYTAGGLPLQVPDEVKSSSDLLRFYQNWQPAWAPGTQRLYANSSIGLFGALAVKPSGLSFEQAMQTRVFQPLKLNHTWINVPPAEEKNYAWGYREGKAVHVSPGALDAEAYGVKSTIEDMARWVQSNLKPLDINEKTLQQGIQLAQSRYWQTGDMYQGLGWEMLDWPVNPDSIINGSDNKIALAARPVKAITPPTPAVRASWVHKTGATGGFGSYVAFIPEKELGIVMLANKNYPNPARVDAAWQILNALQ
Outline: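 AmpC (5.3 nM in the dispensed reagent) in 20 mM phosphate pH 7.0 with 0.01% (detergent screen) or 0.0001% Triton X-100 was preincubated with compounds for 15 min at room temperature. Nitrocefin was then added from an 800 uM solution, and hydrolysis was followed at 480 nm.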
Potency is read from the fitted curve at half-maximal effect; tags tell the direction and shape of the fitted curve.

Question: For N#Cc1c2c(c(Nc3ccccc3)n3c1nc1ccccc13)CCC2, which Potency is on record?
Answer: Its Potency is inconclusive: 2.24 µM [inhibitor, partial curve, poor fit].

Question: For CCN(CC)S(=O)(=O)c1cccc(-c2n[nH]c(=S)n2/N=C/c2ccc(C(=O)OC)cc2)c1, which Potency is on record?
Answer: Its Potency is inconclusive: 6.31 µM [inhibitor, partial curve].

Question: How did the Potency turn out when NNC(=O)c1ccc(NS(=O)(=O)c2ccc(Br)cc2)cc1 was run?
Answer: The Potency was inconclusive: 14.1 µM [inhibitor, partial curve].

Question: With COc1ccccc1NC(=O)c1sc2ncn(Cc3cccc(C)c3)c(=O)c2c1C as the molecule, how does the Potency read?
Answer: Its Potency is inconclusive: 0.631 µM [inhibitor, partial curve, poor fit].

Question: O=C(Nc1cccc(S(=O)(=O)N2CCCCC2)c1)Nc1ccc(Cl)cc1Cl was tested. Which Potency did it give?
Answer: The Potency was inconclusive: 3.98 µM [inhibitor, partial curve].

Question: Which Potency does the source give for O=C(CCc1nc2sc3c(c2c(=O)[nH]1)CCCC3)NCCc1ccccc1 here?
Answer: The Potency was “inactive”.

Question: With C=CCN(C(=O)Cn1ncc2c1-c1cc(C)ccc1OC2)c1ccccc1 as the molecule, how does the Potency read?
Answer: The Potency was inconclusive: 50.1 µM [inhibitor, partial curve, poor fit].

Question: For COc1ccc(/C=C2/SC(=S)N(c3ccc(S(=O)(=O)Nc4nccs4)cc3)C2=O)cc1, which Potency is on record?
Answer: Its Potency is inconclusive: 39.8 µM [inhibitor, single point].

Question: CSc1nnc(NC(=O)c2nc(S(=O)(=O)Cc3ccccc3)ncc2Cl)s1 was tested. Which Potency did it give?
Answer: Its Potency is “inactive”.

Question: With O=C(NCCS(=O)(=O)NCc1ccccc1)c1ccccc1 as the molecule, how does the Potency read?
Answer: Its Potency is inconclusive: 35.5 µM [inhibitor, single point].

Question: For CCCCc1ncc(CN2CCCC(C(=O)c3ccc(SC)cc3)C2)[nH]1 (centres undefined), which Potency is on record?
Answer: The Potency was “inactive”.

Question: With COc1ccc(Cl)cc1NC(=O)C/C(C)=N/NC(=O)CC#N as the molecule, how does the Potency read?
Answer: Its Potency is inconclusive: 4.47 µM [inhibitor, single point].

Question: For C/C(=C\c1ccco1)C1C(C#N)=C(N)Oc2n[nH]c(-c3ccccc3)c21 (centres undefined), which Potency is on record?
Answer: Its Potency is inconclusive: 17.8 µM [inhibitor, partial curve].

Question: Which Potency does the source give for CCCCCCn1c(=O)c(F)cn(Cc2ccc(OC)c([N+](=O)[O-])c2)c1=O here?
Answer: Its Potency is active: 0.141 µM.

Question: With C[n+]1ccc(/C=C/c2ccccc2O)c2ccccc21 as the molecule, how does the Potency read?
Answer: The Potency was “inactive”.

Question: Which Potency does the source give for O=C1CC(SC(=Nc2ccccc2)Nc2ccccc2)C(=O)N1c1ccc(Cl)c(Cl)c1 (centres undefined) here?
Answer: The Potency was inconclusive: 3.16 µM [inhibitor, partial curve].

Question: CCOC(=O)c1c(NC(=O)c2nn(CC)cc2Br)c(C#N)nn1-c1ccccc1 was tested. Which Potency did it give?
Answer: Its Potency is inconclusive: 3.16 µM [inhibitor, single point].

Question: With CCc1ccc2oc(-c3cc(N)ccc3O)nc2c1 as the molecule, how does the Potency read?
Answer: The Potency was inconclusive: 8.91 µM [inhibitor, single point].

Question: For Cc1cc(C(=O)NCC(=O)O)c(C)o1, which Potency is on record?
Answer: The Potency was “inactive”.

Question: How did the Potency turn out when CCOc1cc(/C=N/NC(=O)CN(CCc2ccccc2)S(=O)(=O)c2ccc(NC(C)=O)cc2)ccc1O was run?
Answer: The Potency was inconclusive: 10 µM [inhibitor, partial curve].

Question: With Cn1c(CCn2ccccc2=O)nc2cc(NC(=O)COc3ccccc3)ccc21 as the molecule, how does the Potency read?
Answer: Its Potency is “inactive”.

Question: Which Potency does the source give for CCCCCC/C=N/Nc1nnc(Cc2ccccc2)c(=O)[nH]1 here?
Answer: Its Potency is inconclusive: 8.91 µM [inhibitor, full curve, poor fit].

Question: How did the Potency turn out when CCn1c(SCC(=O)Nc2ccc(OC)c(OC)c2)nnc1-c1c[nH]c2ccccc12 was run?
Answer: Its Potency is active: 0.631 µM.

Question: For CC(C)(C)OC(=O)NCCc1nnc(S(=O)(=O)Cc2ccc(Cl)cc2Cl)o1, which Potency is on record?
Answer: Its Potency is active: 0.316 µM.

Question: Which Potency does the source give for CC(=O)n1c(-c2ccccc2)c(CO)c2ccccc21 here?
Answer: Its Potency is “inactive”.

Question: How did the Potency turn out when CC1CCN2c3nc4ccccn4c(=O)c3CC3(C(=O)N(C)C(=O)N(C)C3=O)C2C1 (centres undefined) was run?
Answer: The Potency was inconclusive: 6.31 µM [inhibitor, single point].

Question: How did the Potency turn out when Fc1cccc(NC(=S)NC2CCCCCCC2)c1 was run?
Answer: The Potency was active: 12.6 µM.

Question: Which Potency does the source give for CC(C)n1c(=S)[nH]c2scc(-c3cccs3)c2c1=O here?
Answer: The Potency was inconclusive: 12.6 µM [inhibitor, partial curve].

Question: With COc1ccc(-c2nc(C(=O)NCC3CCCO3)cc3c2[nH]c2ccccc23)cc1 (centres undefined) as the molecule, how does the Potency read?
Answer: The Potency was inconclusive: 1.58 µM [inhibitor, full curve, poor fit].

Question: With C/C(=N\NC(=O)C1CCCN(S(=O)(=O)c2ccccc2)C1)c1ccccn1 (centres undefined) as the molecule, how does the Potency read?
Answer: Its Potency is active: 3.16 µM.

Question: COC(=O)c1ccc(C2c3c(oc4cc(C)c(C)cc4c3=O)C(=O)N2CCCN(C)C)cc1 (centres undefined) was tested. Which Potency did it give?
Answer: Its Potency is “inactive”.

Question: Which Potency does the source give for COc1ccc(C(=O)NC(=S)Nc2ccc([N+](=O)[O-])cc2C)cc1OC here?
Answer: Its Potency is inconclusive: 2.51 µM [inhibitor, partial curve, poor fit].

Question: For CCc1nnc(NS(=O)(=O)c2ccc(N/C=C\C(=O)c3ccc4ccccc4c3)cc2)s1, which Potency is on record?
Answer: Its Potency is inconclusive: 1.78 µM [inhibitor, full curve, poor fit].

Question: COc1ccccc1Nc1nc(NCc2ccco2)nc(N)c1[N+](=O)[O-] was tested. Which Potency did it give?
Answer: Its Potency is inconclusive: 25.1 µM [inhibitor, single point].

Question: O=C(NCC1CCCO1)C1CCN(S(=O)(=O)c2cccc3cccnc23)CC1 (centres undefined) was tested. Which Potency did it give?
Answer: The Potency was active: 3.16 µM.

Question: Which Potency does the source give for O=C(CNC1CCCCCC1)Nc1ccc(S(=O)(=O)NC2CC2)cc1 here?
Answer: Its Potency is active: 0.158 µM.

Question: For CN(C)/C=C1\Oc2ccc3ccccc3c2C1=O, which Potency is on record?
Answer: The Potency was “inactive”.

Question: For CC(=O)Oc1ccc(C(=O)Nc2cc(NC(=O)c3ccc(OC(C)=O)cc3)cc(C(=O)NC(C)(C)C)c2)cc1, which Potency is on record?
Answer: The Potency was inconclusive: 3.16 µM [inhibitor, partial curve].

Question: For CSc1nc2c(c(=O)n1C)SC(C)C2 (centres undefined), which Potency is on record?
Answer: The Potency was inconclusive: 5.62 µM [inhibitor, full curve, poor fit].

Question: Which Potency does the source give for CCOc1ccc(NC(=S)N(CCc2c(C)[nH]c3ccc(C)cc23)Cc2ccco2)cc1 here?
Answer: Its Potency is inconclusive: 7.08 µM [inhibitor, full curve, poor fit].

Question: Which Potency does the source give for N#Cc1cc(S(=O)(=O)c2ccccc2)c(N)[nH]c1=O here?
Answer: The Potency was inconclusive: 8.91 µM [inhibitor, single point].

Question: Which Potency does the source give for CC(=O)N1CCN(c2ccc(Oc3ccc([N+](=O)[O-])c(C(F)(F)F)c3)cc2)CC1 here?
Answer: Its Potency is “inactive”.

Question: Which Potency does the source give for O=[N+]([O-])c1cc(/C=N\Nc2nccs2)ccc1O here?
Answer: The Potency was inconclusive: 22.4 µM [inhibitor, single point].

Question: For Cc1ccc(OCCC(=O)OCC(=O)NC(=O)NC2CCCC2)cc1, which Potency is on record?
Answer: The Potency was active: 35.5 µM.
